SMILES strings stand for the structures. Some of the results follow. These are further read-outs of the screen, such as a control signal, another cell line or another target. No call is given for them.

For orientation: viability means a read-out of living cells in per cent, often relative to untreated cells.

This assay can be described thus: compounds boosting herpes simplex virus growth – fold increase, host cell viability (AID 1956). Further: tested in PC3 cells. The note with it: HSV replication augmentation in cells; fold increase: measured here: primary screen fold increase 10 uM, at 10 µM, stronger effect = higher value; viability: measured here: host cell viability series, at 25 µM, stronger effect = lower value.
As for `Cc1cc(/C=C2\SC(=S)N(Cc3ccco3)C2=O)c(C)n1-c1ccccc1`, the fold increase is 1.65 and the viability is 97%.
For `S=C(Nc1ccc2nc(-c3ccccn3)c(-c3ccccn3)nc2c1)N1CCCCC1`, in that order: 1.46 and 84.2%.
Turning to `CCCCN(C(=O)CC(c1ccccc1)c1ccccc1)c1c(N)n(CCC)c(=O)[nH]c1=O`, the fold increase is 1.32.
For `CC1=CC(=NOC(=O)/C=C/c2ccccc2)C=C(C)C1=O`, the fold increase amounted to 1.44 and the viability stood at 94.5%.
`O=C(O)Cc1sc(Nc2ccccc2)nc1-c1cccs1`: the fold increase was determined as 1.57 and the viability stood at 101%.
For `NC(=O)c1sc(=S)n2c1[nH]c(=O)c1sccc12`, in that order: 1.96 and 104%.
`CCOc1ccc2[nH]c(=O)c(CN(CCO)C(=O)c3ccc(Br)cc3)cc2c1` came in with a fold increase of 1.18.
Molecule `O=C(CSc1ncccn1)Nc1ncc(C(F)(F)F)cc1Cl` yielded a fold increase of 1.32.
On the same count and under the same terms, the result for `Cc1ccc(NC(=S)NNC(=S)NCc2ccccc2)cc1` reads 1.21.
For the molecule `COc1ccc(C2NC3=C(CCCC3)C(C#N)(C#N)C2(C#N)C#N)cc1` (stereo not drawn), the fold increase worked out at 1.43 and the viability was 88.3%.
As for `CCCN1CC=C2C(C#N)=C(N)C(C#N)(C#N)C(c3cccc(OC)c3OC)C2C1` (stereo not drawn), the fold increase was 1.32 and the viability is 100%.
As to `O=C(CCc1ccccc1)NC(NC(=S)Nc1ccc(Cl)cc1)C(Cl)(Cl)Cl` (stereo not drawn), the fold increase amounted to 1.04.
For `COC(=O)Nc1sc2c(c1C(=O)NC1CC1)CCCCCC2`, the fold increase worked out at 1.32 and the viability was determined as 101%.
In the case of `Cc1ccc(N=Cc2c(O)n(-c3nccs3)c(=O)c3ccccc23)cc1`, the fold increase was 1.37.
On to `CCOC(=O)C1=C(CSc2nc(C)ccc2C#N)OC(N)=C(C#N)C1c1cccc(OC)c1OC` (stereo not drawn), for which the fold increase was found to be 1.75 and the viability came to 94.8%.
On the same counts, the results for `COc1ccc(CNC(=O)c2cccnc2Sc2ccc(Cl)cc2)cc1` are 1.37 and 96.3%.
Take `O=C(Nc1ccc(F)cc1)C(Cc1ccccc1)n1cccc1` (stereo not drawn): the fold increase is 1.32.
In the case of `CCCCCCNC(=O)C(C#N)c1nc2ccccc2nc1N1CCOCC1` (stereo not drawn), the fold increase is 1.79 and the viability was 91.3%.
On to `CN1/C(=C\C=Nc2cc(S(=O)(=O)N3CCOCC3)ccc2N2CCOCC2)C(C)(C)c2ccccc21`, for which the fold increase came to 1.5 and the viability turned out to be 97.8%.
As for `CCn1c(=O)c(C(=O)CN2CCc3ccccc32)c(N)n(Cc2ccccc2)c1=O`, the fold increase amounted to 1.88 and the viability was found to be 90.4%.
Turning to `CC(=Nc1ccc(Br)cc1)c1sc2ccccc2c1O`, the fold increase stood at 3.01 and the viability is 101%.
On the same counts, the results for `CCN(CC)c1ccc2c(Cl)c(Br)c(=O)oc2c1` are 2.87 and 43.9%.
For `CC1=C(C#N)C(=O)N(C2CCS(=O)(=O)C2)C(=O)/C1=C\c1ccc(C)o1` (stereo not drawn), in that order: 2.88 and 93.3%.
Consider `CCC(CO)[n+]1c(C)cc(/C=C2\Sc3ccccc3N2Cc2ccccc2)cc1C` (stereo not drawn), for which the fold increase came out at 2.81 and the viability was 31.3%.
In the case of `COc1cc(/C=C2/SC(=S)N(CC(=O)O)C2=O)ccc1OC(=O)c1cccs1`, the fold increase turned out to be 3.2 and the viability is 90.5%.
Consider `COc1ccc2nc(SCC(C)=O)c(C#N)cc2c1`, for which the fold increase is 1.57.
As to `CCN1CCN(Cc2c(O)ccc3c2O/C(=C\C=C\c2ccccc2)C3=O)CC1`, the fold increase turned out to be 2.03.
Still for that read-out and setting: the result for `O=C(Nc1ccncc1)c1ccccc1[N+](=O)[O-]` reads 1.5; that for `CC(C)C(=O)NC(c1ccco1)c1ccc2cccnc2c1O` (stereo not drawn), 1.72.
Regarding `O=C1CC(/C=C/c2ccccn2)=Nc2ccccc2N1`, the fold increase was 1.33 and the viability was 44.8%.
Consider `Cc1ccc(-c2n[nH]c(=S)n2/N=C/C=C/c2ccccc2[N+](=O)[O-])cc1`, for which the fold increase stood at 1.37.
`C=CCNC(=O)/C(C#N)=C\c1cc(Cl)c(O)c(OCC)c1`: the fold increase stood at 1.5 and the viability worked out at 96.7%.
On the same counts, the results for `O=C(Nc1ccccc1C(=O)Nc1ccccc1C(=O)NCc1ccco1)c1ccco1` are 1.33 and 78.9%.
The molecule `Cc1ccc(Cn2cc(/C=N/Nc3ccc([N+](=O)[O-])cn3)c3ccccc32)cc1` yielded a fold increase of 1.43.
Turning to `CC(NC(=O)c1ccccc1Br)c1ccc2c(c1)CCCC2` (stereo not drawn), the fold increase is 1.41 and the viability stood at 98%.
For `O=C(Nc1nc2c(cc3c4c(cccc42)CC3)s1)c1ccccc1Cl`, in that order: 2.28 and 92.6%.
Take `Cc1c(C(=O)N2c3ccccc3Sc3ccccc32)cccc1[N+](=O)[O-]`: the fold increase worked out at 1.32.
The same measure, in the same setting: the same measure for `O=C(c1ccccc1)C(Cn1cncn1)C(Sc1ccccc1)c1ccccc1` (stereo not drawn): 1.14.
For `Cc1ccccc1CNS(=O)(=O)c1ccc2c(c1)OCCO2`, the fold increase was found to be 1.37 and the viability was 90.8%.
As for `CC(C)(C)C1=NN(c2ccc([N+](=O)[O-])cc2)C(c2ccccc2)C1` (stereo not drawn), the fold increase is 1.32.
With `CC1=NN(c2nc(-c3ccc(Cl)cc3)cs2)C(=O)C1`, the fold increase turned out to be 1.37 and the viability worked out at 100%.
Turning to `COc1ccccc1N1C(=O)C2ON(c3ccccc3)C(c3ccc(N(C)C)cc3)C2C1=O` (stereo not drawn), the fold increase is 1.4 and the viability stood at 105%.
Regarding `CN(CCC#N)c1ccc(/C=C(\C#N)c2ccccn2)cc1`, the fold increase was 4.39 and the viability turned out to be 83.4%.
Molecule `O=C(NNC1=C(C(=O)C(F)(F)F)CCC1)c1cccc(Cl)c1` showed a fold increase of 2.03.
As to `Cc1cc2nc3c(=O)n(CCc4ccccc4)c(=O)[nH]c3nc2cc1N`, the fold increase was 9.63 and the viability was found to be 89.2%.
Consider `CC(=O)Oc1c(C)cc(O)c2ccccc12`, for which the fold increase is 3.26 and the viability is 69.3%.
On the same counts, the results for `O=C1c2ccccc2C(=O)C12OC(c1ccccc1)C1(C(=O)c3ccccc3C1=O)C2c1cccc([N+](=O)[O-])c1` (stereo not drawn) are 1.35 and 92.9%.
On the same counts, the results for `O=C(O)c1cc(Cl)ccc1-c1ccc(/C=C/c2cc(C(F)(F)F)[nH]c(=O)n2)o1` are 1.35 and 94.8%.
On the same counts, the results for `Nc1nnnn1CC(=O)OCc1cccc(Br)c1` are 1.33 and 93.9%.
In turn, `CC1CCCN(c2c([N+](=O)[O-])c(=O)oc3ccccc23)C1` (stereo not drawn) returned a fold increase of 1.32.
In the case of `CCOc1ccc(C2C=C(c3ccc(F)cc3)Nc3ncnn32)cc1` (stereo not drawn), the fold increase was 1.19 and the viability was 93.7%.
Take `CS(=O)(=O)N1CC2CCCN2c2cc(C(F)(F)F)ccc21` (stereo not drawn): the fold increase came to 1.42 and the viability amounted to 88%.
On the same counts, the results for `Cc1ccc(S(=O)(=O)NCC(=O)NCC(=O)OCc2c(F)cccc2Cl)cc1` are 1.43 and 91%.
On the same counts, the results for `Cc1cc2nc3c(=O)n(Cc4ccccc4)c(=O)[nH]c3nc2cc1N` are 8.18 and 101%.
On the same counts, the results for `CCOC(=O)c1cc2c(nc1NC(=S)Nc1ccccc1)CC(C)(CC)OC2` (stereo not drawn) are 1.36 and 93.2%.
As for `CC(=Nc1ccc(O)cc1)c1sc2ccccc2c1O`, the fold increase was determined as 1.81 and the viability came to 86.4%.
On the same counts, the results for `CCOC(=O)C1=C(O)/C(=C/c2cc(OC)c(O)c(OC)c2)SC1=Nc1ccc(OC)cc1` are 1.4 and 105%.
Molecule `CCN1C(=O)/C(=C/c2ccc(N3CCCC3)cc2)NC1=S` had a fold increase of 3.77.
Regarding `COc1cc([N+](=O)[O-])ccc1NC(=O)CCCOc1cccc(C)c1C`, the fold increase was 1.5 and the viability was found to be 92.8%.
For `Cc1nc2ccccc2c2oc(C(=O)N3CCc4ccccc4C3)cc12`, in that order: 1.37 and 77.2%.
On the same counts, the results for `CN(C)c1ccc2c3c(cccc13)C(=O)N(c1ccccc1)C2=O` are 3.42 and 92.6%.

Values taken from PubChem BioAssay AID1956 (SRMLSC, 2009).
